In PubChem BioAssay AID493208 (National Center for Advancing Translational Sciences (NCATS), 2011):
Hit rate of the full screen: of about 44,000 compounds, about 340 (0.77%) were called active. About 5% were inconclusive and are not listed. Calls come from the whole dose curve; as a rule, active = well fitted inhibition curve with a large enough effect; inconclusive = small, poorly fitted or top-dose-only effect; inactive = flat fitted curve, though single readings scatter. This is one part of the list.

assay: Acumen qHTS Assay for Inhibitors of the mTORC1 Signaling Pathway in MEF (Tsc2-/-, p53-/-) Cells: Sytravon; conditions: phospho-rpS6 immunofluorescence/PI, 24 h; series mostly up to 38.3 µM; activity change, negative = inhibition: at the top concentration;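 note: plate controls were DMSO for no effect and rapamycin for full effect; nearly all actives have a fitted effect of over 50% in size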
Method in brief: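 Compounds act on Tsc2-/-, p53-/- fibroblasts carrying an empty vector for 24 h before fixation and dual staining for phospho-S6 and DNA (propidium iodide). Values are percentages of cells above a rapamycin-defined pS6/PI threshold.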

Activity change, negative = inhibition, inactive:
O=C(CC1N=C2c3ccccc3N=C(SCc3ccc(Cl)cc3)N2C1=O)NCc1cccs1 (stereo unspecified) -1.98%, COc1ccc(N2CCN(C(=O)C3CCN(S(=O)(=O)c4cccs4)CC3)CC2)cc1 -14.4%, O=c1c2cc3c(cc2n(Cc2ccc(Cl)cc2)c(=O)n1Cc1nc(-c2ccccc2)no1)OCO3 0.86%, Cc1ccc(-n2c(Cc3ccccc3)nnc2SCc2nc(-c3cccs3)no2)cc1 -1.66%, O=C(Nc1cccc(Cl)c1)c1cnc2sc(N3CCCC3)nn2c1=O -12.8%, CN1C(=O)Cc2cc(S(=O)(=O)N3CCN(c4ccccc4F)CC3)ccc21 2.88%, Cc1ccc(-c2noc(C(C)NS(=O)(=O)c3ccc(C)cc3)n2)cc1 (stereo unspecified) -13.4%, COc1ccc(CNC(=O)Cc2c(C)c3cc4c(C)coc4c(C)c3oc2=O)cc1 1.45%, Cc1ccc(C)c(CN2CCCN(Cc3ccc(F)cc3)S2(=O)=O)c1 -3.5%, Cc1nc(-n2nc(C)c(Cc3ccccc3Cl)c2C)sc1C(=O)Nc1ccccc1F -3.33%, CC(=O)c1ccc(S(=O)(=O)N2CCn3cccc3C2c2ccc(C)cc2)cc1 (stereo unspecified) 0.303%, CCOC(=O)Cn1c(=O)n(CC2CCCO2)c2nc(-c3ccc(C)cc3)nc(C(N)=O)c21 (stereo unspecified) 1.85%, CC(C)c1ccc(C2=CC(c3ccc(C(C)C)cc3)n3nnnc3N2)cc1 (stereo unspecified) -0.431%, Cc1ccc2nc3c(cc(C(=O)NCC4CCCO4)c(=N)n3C(C)C)c(=O)n2c1 (stereo unspecified) -5.24%, COc1ccccc1/C=C/c1nc2ccccc2n1C(C)C -19.2%, COc1ccccc1NC(=O)C(=O)NCC(c1ccc2c(c1)OCO2)N1CCOCC1 (stereo unspecified) -8.48%, COc1ccc(Cl)cc1NC(=O)Cc1ccc(NC(=O)N2CCCCc3ccccc32)cc1 0.123%, CCc1nnc(NC(=O)CSc2nccn2-c2ccc(OC)cc2)s1 -18.8%, CCn1c(C)c(C2N3CC4(C)CN2CC(C)(C3)C4=O)c2ccccc21 (stereo unspecified) 0.135%, CSc1ccc(CCNC(=O)c2cnc3c(C)cccn3c2=O)cc1 1.92%, Cc1nc(C)c(-c2ccc(SCC(=O)Nc3ccc(Br)cc3)nn2)s1 -4.37%, CC(=O)c1cccc(-n2c(=O)c3c4c(sc3n(CC(=O)c3ccccc3)c2=O)CN(C(C)=O)CC4)c1 2.78%, Cc1ccc(C)c(CN2C(=O)c3ccccc3S(=O)(=O)c3ccc(C(=O)N(C)C4CCCCC4)cc32)c1 -0.434%, CC(=O)c1cc2c(cc1N/C(=N/S(=O)(=O)c1ccc(Cl)cc1)c1ccc(F)cc1)OCO2 2.71%, COc1cc(C(=O)Oc2c(Sc3ccccc3)c(C)nn2-c2ccccc2)cc(OC)c1OC -2.21%, CCc1ccccc1NC(=O)Nc1c[nH]c(=O)[nH]c1=O -5.39%, Cc1ccc(C)c(N2CCN(C(=O)c3ccc(NC(=O)c4nsc5ccccc45)cc3)CC2)c1 0%, Cc1ccc(CNC(=O)CCCCCn2c(=O)[nH]c3ccccc3c2=O)cc1 0.155%, Cc1nn(-c2ccccc2)c(OC(=O)C(C)C)c1Sc1ccc(Cl)cc1 6.4%, Cc1ccc(/C=C/c2onc(C)c2S(=O)(=O)N2CCC(C(=O)Nc3ccc(C)c(N(C)C)c3)CC2)cc1 -1.33%, CC1CCCN(CCCNC(=O)c2ccc3c(c2)N(Cc2ccccc2F)C(=O)c2ccccc2S3(=O)=O)C1 (stereo unspecified) 0.661%, Cc1ccccc1-c1nc(CN2CCC(C(=O)NCc3ccccc3Cl)CC2)c(C)o1 -9.97%, CCOc1ccc(N2CC(NC(=O)CCc3ccccc3)CC2=O)cc1 (stereo unspecified) -10.8%, CC(C)(C)c1ccc(NC(=O)C2CCCN(c3cnccn3)C2)cc1 (stereo unspecified) -10.4%, Cc1cc(C)c(NC(=O)Cn2c(=O)n(CC(=O)NCc3ccccc3Cl)c(=O)c3sccc32)c(C)c1 3.58%, CC(=O)c1cc2c(cc1N/C(=N/S(=O)(=O)c1ccc(C)cc1)c1ccccc1)OCO2 -3%, COC(=O)c1ccc(NC(=O)CCS(=O)(=O)c2ccc(Br)cc2)cc1 -2.21%, CCOC(=O)c1c(NC(=O)/C=C/c2ccc(OCC)cc2)sc(C)c1C 15.3%, COC(=O)C(NC(=O)CC(C)C)(Nc1nc2c(s1)CCCC2)C(F)(F)F (stereo unspecified) -22.5%, CCCCOc1ccc(C(=O)NCCS(=O)(=O)N2CCN(c3ccc(F)cc3)CC2)cc1 4.87%, CCc1cnc2c(c1SCC(=O)N1CCCCC1)c(=O)n(C)c(=O)n2C -5.83%, CCC(=O)N1CCc2cc(Br)cc(S(=O)(=O)N3CCC(C(=O)Nc4ccc(OC)cc4)CC3)c21 -1.35%, COc1ccc(C(=O)NC2(C(F)(F)F)C(=O)NC(C)=C2C#N)cc1OC (stereo unspecified) 0.356%, COc1ccc(-c2cc(C(=O)O)n(Cc3ccccc3)n2)cc1 -11.7%, O=C(CSc1nc2ccccc2nc1Cc1ccccc1)NCc1ccccc1Cl -15.2%, CCCCN(CC)CCCNC(=O)c1sc2nc(C)cc(C)c2c1-n1cccc1 -35.7%, CCc1ccc(NC(=O)c2ccc3c(O)c(S(=O)(=O)c4ccc(Cl)cc4)c(=O)[nH]c3c2)cc1 -2.95%, Cc1cccc(OC(C)C(=O)Nc2ncn[nH]2)c1 (stereo unspecified) -2.13%, COc1ccc(CN(C(=O)COc2ccccc2OC)C2CCS(=O)(=O)C2)cc1 (stereo unspecified) -3.75%, Cc1ccc(S(=O)(=O)N(CC(O)Cn2c3ccccc3c3ccccc32)c2cccc(C(N)=O)c2)cc1 (stereo unspecified) -3.66%, Cc1ccc(C)c(NC(=O)CN2C(=O)CCc3ccccc32)c1 -26.1%, CCN(CC)c1cc(C)c2cc(NC(=O)c3cccc(OC)c3)ccc2n1 -21.5%, Cc1cccc2nc(-c3ccco3)c(Nc3ccc4c(c3)OCO4)n12 2.13%, CCOC(=O)C1CCCN(S(=O)(=O)c2ccc(F)c(C(=O)Nc3ccc(F)c(F)c3)c2)C1 (stereo unspecified) -22%, Cc1ccccc1CNC(=O)c1cnc2sc(N3CCOCC3)nn2c1=O -8.3%, Cc1ccc(NC(=O)CN(C)S(=O)(=O)c2ccc3c(c2)n(C)c(=O)c(=O)n3C)cc1C -13.1%, Cc1ccc(-c2nc3c4ccccc4n(CC(=O)N4CCN(c5ccccc5F)CC4)c(=O)n3n2)cc1 0.115%, Cc1ccc(-n2nnnc2CNC(=O)C(C)(C)C)cc1C -12.7%, Cc1nc(SC(C)C(=O)Nc2ccccc2C)cc(-c2ccccc2)n1 (stereo unspecified) -0.685%, COc1ccc(CNC(=O)c2cc(-c3ccc(OC)cc3)on2)cc1 4.54%, CCOc1ccc(CCNC(=O)Cn2nc(C)n3c(cc4occc43)c2=O)cc1OCC -6.32%, Cc1ccccc1C(=O)c1cccn1CC(=O)NCc1ccccc1 1.4%, CCn1c2ccccc2c2nnc(SCC(=O)O)nc21 -2.06%, Cc1ccc(C)c(OCCn2c(-c3ccc(Cl)cc3)nc3ccccc3c2=O)c1C 5.97%, COc1ccc(CNC(=O)CSc2nc(-c3ccc(OC)cc3)cc(C(F)(F)F)n2)cc1 -2.81%, CC(C)Oc1ccc(CNC(=O)c2cc3ccccn3n2)cc1 -9.65%, CC(=O)Nc1ccc(S(=O)(=O)N2CCC(n3c(C(F)(F)F)nc4cccnc43)CC2)cc1 -0.998%, COc1cccc(-c2cc(C(=O)Nc3cc(Cl)ccc3O)on2)c1 0%, Cc1ccccc1-n1c(SCc2ccc(Cl)cc2)nc2[nH]ncc2c1=O -2.19%, COc1cccc(N2CCN(C(=O)CCc3c(C)nc4c(c3C)c(=O)n(C)c(=O)n4C)CC2)c1 -6.86%, CCC(C)NC(=O)c1ccc2c(c1)N(Cc1ccccc1)C(=O)c1ccccc1S2 (stereo unspecified) 8.33%, CCN(CC)c1cc2c(cc1F)c(=O)c(S(=O)(=O)c1ccc(OC)cc1)cn2CC -19.3%, CCOc1ccc(CNC(=O)C2CCCN(S(=O)(=O)c3ccc4c(ccn4C)c3)C2)cc1 (stereo unspecified) 4.53%, COc1ccc(-c2nc(CN3CCC(C(=O)NCc4ccccc4)CC3)c(C)o2)cc1OC 0.702%, Cn1nnc2c(N3CCN(c4ccccc4Cl)CC3)ncnc21 -1.19%, COc1ccc(-c2c3c(=O)n(C)c(=O)n(C)c3c3c(C)nc4ccccc4n23)cc1 -5.39%, CC(C)(C)c1ccc(-c2nc(SCCCOc3ccccc3)n3[nH]c(=O)cc3n2)cc1 8.06%, CCOC(=O)Cn1c(=O)n(-c2ccccc2OC)c2nc(-c3cccc(F)c3)nc(C(N)=O)c21 0%, Cc1ccc(-c2nnc(SCc3cccc(C#N)c3)o2)cc1 -16.1%, CCOC(=O)c1ccccc1NC(=O)N(C(C)C)C1CCN(C(C)=O)CC1 2.13%, CCOC(=O)c1cccnc1SCC(=O)Nc1ccc(C)cc1C 1.3%, Cc1ccc2c(c1)-c1c(cnc3cc(-c4ccccc4)nn13)CO2 0.0574%, CN(C)CCNC(=O)c1ccc2c(=O)n3c(nc2c1)CCCCC3 -6.39%, O=C(NCCc1ccccc1)c1nnc(Cc2cccc(F)c2)o1 0%, COc1ccc(-c2nc(C)c(CCNS(=O)(=O)c3cc(C)c(C)cc3C)s2)cc1 -2.57%, O=C(CCS(=O)(=O)c1cccs1)Nc1ccc(C(=O)Nc2ccccc2F)cc1 -4.14%, CCSc1ncc(Cl)c(C(=O)Nc2ccc(S(=O)(=O)N3CCCCC3)cc2)n1 0.439%, CCCCN(CCCC)CCNC(=O)c1cn(CC)c2ccc(S(=O)(=O)N(C)C3CCCCC3)cc2c1=O -1.52%, COc1ccc(Cl)cc1NS(=O)(=O)c1ccc2c(c1)NC(=O)CC(=O)N2 -0.675%, CCOc1ccc(NC(=O)Cn2c(=O)n(-c3cccc(OC)c3)c(=O)c3c4c(sc32)CCCC4)cc1 -1.85%, Cc1ccc(C)c(Cn2cc(S(=O)(=O)c3ccc(Cl)cc3)c(=O)c3cc(F)ccc32)c1 -1.38%, CCc1ccc(NC(=O)c2ccc3[nH]c(C)c(C)c3c2)cc1 -19.3%, CCN(Cc1ccccc1)C(=O)CN(c1ccc(OC)cc1)S(=O)(=O)c1c(C)nn(C)c1C -13.1%, CCOC(=O)C1CCN(C(=O)Cn2c(=O)oc3cc(S(=O)(=O)N4CCC(C)CC4)ccc32)CC1 -17.3%, CC(=O)N1CCc2c(sc3c2c(=O)n(CCc2ccccc2)c(=O)n3Cc2ccc(Cl)cc2)C1 -6.53%, Cc1ccccc1NC(=O)CSc1nc2c(c(=O)n(C)c(=O)n2C)n1Cc1ccccc1F 2.34%
